# Patent US9868789B2, “Synergistic combinations of OX40L antibodies for the treatment of GvHD” (Kymab Limited, priority 2015, dated 2018)
# Legend:
# [1] = system: CD3 primed primary human T lymphocytes; assay: Effect of anti-OX40L antibodies on CD3 primed primary human T lymphocytes (IFN-γ release); assay type: cell-based; details: 10 μg/mL, 5 days, four independent donors; versus human IgG4PE isotype control
# Procedure: In order to determine whether anti-OX40L had the ability to induce T-cell responses in the absence of OX40L, the assay below was performed using method adapted from Wang et al., Hybridoma (Larchmt)., 2009 Aug.; 28(4):269-76, in which an agonist anti-OX40L antibody was described.
# A mouse anti-human CD3 antibody (Becton Dickinson) was diluted to 0.5 μg/mL in sterile PBS and 50 μL/well added to a 96 well high binding sterile plate and incubated overnight at 4° C.
# Following overnight incubation, the plate was washed three times with 100 μL of sterile PBS.
# T-cells (CD3 positive) were isolated from PBMC derived from leukoreduction system chambers (NHSBT) as described in Example 3. Following isolation, the cells were added to wells in 100 μL to achieve a final concentration of 1×10^5 cells/well.
# Test antibodies were diluted in RPMI+10% FBS and 50 μL or 100 μL/well added to cell plate to achieve a final assay concentration of 10 μg/mL. In some cases, a mouse anti-human CD28 antibody (Becton Dickinson) was also added to wells at a final concentration of 1 μg/ml
# The assay was incubated for 5 days. After 5 days, harvest supernatants and IFN-γ levels in supernatant were determined as described in Example 5.
# [2] = system: Rhesus Macaque model of haploidentical hematopoietic stem cell transplantation (HSCT); assay: Rhesus Macaque Graft Versus Host Disease (GvHD) model, 2D10 IgG4PE monotherapy prophylaxis
# Rhesus monkey OX40L = assay: Surface plasmon resonance, apparent affinity to rhesus OX40L; assay type: binding, Rhesus (Macaca mulatta); details: SPR, 25° C., OX40L at 256 nM; CNROR = Cannot resolve off-rate
# Procedure: (§1) SPR analysis was carried out using the ProteOn™ XPR36 Array System (BioRad). Anti-mouse IgG (GE Healthcare BR-1008-38) was immobilised on a GLM biosensor surface using amine coupling, the surface was then blocked using 1 M ethanolamine. Test antibodies were captured on this surface and recombinant hOX40L (human and rhesus) were used at a single concentration of 256 nM, binding sensorgrams were double referenced using a buffer injection (i.e. 0 nM) to remove baseline drift and injection artefacts. Apparent affinities for the OX40L-antibody interaction were determined using the 1:1 model inherent to the ProteOn XPR36 analysis software. The assay was run using HBS-EP (Teknova) as running buffer and carried out at 25° C.
# recombinant hOX40L = biological target: T1, recombinant hOX40L (Homo sapiens, UniProt P23510); assay: Surface plasmon resonance, apparent affinity to human OX40L; assay type: binding; details: SPR, 25° C., OX40L at 256 nM; CNROR = Cannot resolve off-rate
# T1 construct: cDNA encoding the extracellular domain of human OX40L was cloned into a pREP4 expression plasmid; made in house; host or cells: FreeStyle CHO-S, transient expression
# Procedure: as §1
# [3] = system: memory stem T-cells (Tscm) and naïve T-cells (Tn); assay: Flow cytometry of T cell subsets (Tscm, Tn) in the rhesus GvHD model; assay type: in vivo, Rhesus macaque
# Procedure: Blood was collected into tubes with Sodium EDTA, and then red blood cells were lysed with lysis buffer containing ammonium chloride. Remaining leukocytes were washed with FACS buffer (PBS with 2% FBS) and stained with antibody cocktail (Table 7) for 30 minutes at 4° C. After staining, cells were washed and fixed in 1×BD Stabilizing Fixative. Acquisition of flow data was performed on BD LSR Fortessa cytometer. Data were analyzed using FloJo. T-cells were defined as CD3+CD14/CD20-lymphocytes.
# [4] = system: peripheral blood donor chimerism; assay: Donor chimerism in the rhesus GvHD model (MHC-linked microsatellite markers); assay type: in vivo, Rhesus macaque; details: individual animals
# [5] = individual animals (#1 r6, #2 r7, #3 r8, #4 r9, #5 r10, #6 r11), 10 mg/kg i.v., brackets = experimental failure
# T1 sequence (P23510 with tags, fused parts or gaps): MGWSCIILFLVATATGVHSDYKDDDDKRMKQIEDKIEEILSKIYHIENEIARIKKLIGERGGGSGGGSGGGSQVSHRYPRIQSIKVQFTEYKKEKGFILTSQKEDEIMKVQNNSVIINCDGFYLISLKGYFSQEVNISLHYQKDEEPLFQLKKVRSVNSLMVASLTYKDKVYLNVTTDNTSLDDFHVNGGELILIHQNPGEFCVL
molecule,measurement,setting,value
"2D10 IgG4PE: fully human anti-human OX40L antibody, IgG4-PE; heavy chain SEQ ID No:62, light chain SEQ ID No:64 (antibody, listed as Homo Sapiens) heavy: EVQLVESGGGLVQPGGSLRLSCAASGFTFSNYAMNWVRQAPGKGLEWVSTISGSGGATRYADSVKGRFTISRDNSRNTVYLQMNSLRVEDTAVFYCTKDRLIMATVRGPYYYGMDVWGQGTTVTVSSASTKGPSVFPLAPCSRSTSESTAALGCLVKDYFPEPVTVSWNSGALTSGVHTFPAVLQSSGLYSLSSVVTVPSSSLGTKTYTCNVDHKPSNTKVDKRV[human IgG4 Fc with changes not spelt out] light: DIQMTQSPSSLSASVGDRVTITCRASQSISSYLNWYQQKPGKAPNLLIYAASSLQSGVPSRFSGSGSETDFTLTISSLQPEDFATYYCQQSHSVSFTFGPGTKVDIKRTVAAPSVFIFPPSDEQLKSGTASVVCLLNNFYPREAKVQWKVDNALQSGNSQESVTEQDSKDSTYSLSSTLTLSKADYEKHKVYACEVTHQGLSSPVTKSFNRGEC",IFN-γ release from CD3 primed T-cells in the absence of OX40L,[1],no effect
same,serious adverse dosing side effects,"[2]; 10 mg/kg i.v., rhesus HSCT recipients",No serious adverse dosing side effects
same,"median survival time, MST","[2]; 2D10 monotherapy, n=4",19 days
same,visceral GvHD at gross necropsy,[2]; animal #4,confirmed no overt visceral GvHD.
same,clinical symptoms of acute GVHD,[2]; in words,reduces clinical symptoms of acute GVHD
same,survival of animals after allogeneic HCT,[2]; in words,prolonged survival
same,evidence of CMV or rhLCV infection,[2]; individual animals,No evidence; also recorded: No evidence of CMV or rhLCV; also recorded: repopulation concurrent with evidence of CMV and rhLCV
same,Survival to Day,"[2]; individual animals #1, #2, #4, #5, #6, #1 recorded as Technical Failure",Survival to Day 16. Received 3 doses of 2D10 IgG4PE. Peak day; also recorded: Survival to Day 26. Received 4 doses of 2D10 IgG4PE. Clear day; also recorded: Survival to Day 22. Received 4 doses of 2D10 IgG4PE. Clear day; also recorded: Survival to Day 16. Received 3 doses of 2D10 IgG4PE. Clear day; also recorded: Survival to day 24. Received 4 doses of 2D10 IgG4PE. Biphasic
same,Survival Duration,[2]; [5],22 days and 16 days (2×) and 26 days
same,Survival Duration (days),[2]; [5],(24) days; also recorded: (0) days
same,Apparent Affinity RhsOX40L (nM),Rhesus monkey OX40L,CNROR
same,Apparent Affinity hOX40L (nM),recombinant hOX40L,CNROR
same,proportion of post-HCT Tscm cells in peripheral blood,"[3]; CD4+ and CD8+ Tscm, compared with sirolimus and Tac/MTX treatment, FIG. 6",sustained inhibition of the proportion of Tscm cells
same,CD4+ Tn (naïve) cells following allogeneic HCT,"[3]; peripheral blood, FIG. 4",preserving CD4+ T naïve cells; also recorded: preservation of CD4+ Tn cells
same,CD4+ Tscm expansion following allogeneic HCT,"[3]; peripheral blood, FIG. 4",controls expansion of CD4+ Tscm cells; also recorded: limited CD4+ Tscm expansion
same,Whole Blood Chimerism (%) Day 0,[4]; Day 0,0%
same,Whole Blood Chimerism (%) Day 1,[4]; Day 1,16.6% and 5.7% and 22.9%
same,Whole Blood Chimerism (%) Day 4,[4]; Day 4,6.6%
same,Whole Blood Chimerism (%) Day 5,[4]; Day 5,91.4% and 66.3% and 31.7% and 68.2%
same,Whole Blood Chimerism (%) Day 7,[4]; Day 7,27.5%
same,Whole Blood Chimerism (%) Day 8,[4]; Day 8,98.4% and 97.4% and 66.3% and 82.9%
same,Whole Blood Chimerism (%) Day 11,[4]; Day 11,90.4%
same,Whole Blood Chimerism (%) Day 12,[4]; Day 12,98.6% and 99.5% and 82.3% and 92.1%
same,Whole Blood Chimerism (%) Day 14,[4]; Day 14,81.8%
same,Whole Blood Chimerism (%) Day 15,[4]; Day 15,99.1% and 99.4% and 88.2% and 97.5%
same,Whole Blood Chimerism (%) Day 16,[4]; Day 16,79.8%
same,Whole Blood Chimerism (%) Day 18,[4]; Day 18,19.7%
same,Whole Blood Chimerism (%) Day 20,[4]; Day 20,99.2% and 98.4%
same,Whole Blood Chimerism (%) Day 21,[4]; Day 21,0%
same,Whole Blood Chimerism (%) Day 23,[4]; Day 23,98.6% and 98.8%
same,Whole Blood Chimerism (%) Day 26,[4]; Day 26,98.7%
same,peak peripheral blood donor chimerism,[4]; day of peak printed per animal (Day 12 to Day 23),88% and 99% (2×) and 100%

# Where “and” joins values, the source holds several entries; their conditions need not be identical. Identical values can stand only once. Entries after “also recorded” stand apart in the source; their conditions may differ.
